# B1: H4H30063P: anti-FGFR3 antibody, hIgG4^P; HCVR/LCVR SEQ ID NOs: 2 & 10; HC/LC SEQ ID NOs: 18 & 20 (antibody)
# heavy: QVQLQESGPGLVKPSETLSLTCTVSGDSINSYFWSWIRQLPGKELEWIGHIYSSGSTRYNPSLQSRVTISIDTSKNQFSLKLSSVTAADTAVYYCARGASAVDYWGQGTLVTVSSASTKGPSVFPLAPCSRSTSESTAALGCLVKDYFPEPVTVSWNSGALTSGVHTFPAVLQSSGLYSLSSVVTVPSSSLGTKTYTCNVDHKPSNTKVDKRV[sequence of human IgG4 Fc with S228P (EU numbers) not given]
# light: EIVLTQSPGTLSLSPGERATLSCRTSQSISSGYLAWYQQKPGQAPRLLIYGASRRATGIPDRFSGSGSGTDFTLTISRLEPEDFVVYYCQQYGSSPYTFGQGTKLEIKRTVAAPSVFIFPPSDEQLKSGTASVVCLLNNFYPREAKVQWKVDNALQSGNSQESVTEQDSKDSTYSLSSTLTLSKADYEKHKVYACEVTHQGLSSPVTKSFNRGEC
# Assays:
# [1] = target: T1, murine FGFR3b (mFGFR3b.mmH, REGN3215) (Mus musculus, UniProt Q61851); assay: Biacore SPR binding kinetics, monomeric murine FGFR3b to captured antibodies; settings: 25° C.
# T1 construct: REGN3215 (murine FGFR3b expressed with a C-terminal myc-myc-hexahistidine tag)
# Experimental: Biacore binding kinetics of anti-FGFR3 antibodies, in an antibody capture format, to monomeric human FGFR3b, cynomolgus FGFR3b, murine FGFR3b, human FGFR3c, and dimeric human FGFR3b ecto domain recombinant proteins at 25° C. were analyzed.
# Equilibrium dissociation constants (KD values) for human FGFR3b expressed with a C-terminal myc-myc-hexahistidine tag (hFGFR3b.mmH, REGN3152) or cynomolgus FGFR3b expressed with a C-terminal myc-myc-hexahistidine tag (mfFGFR3b.mmH, REGN3521), or murine FGFR3b expressed with a C-terminal myc-myc-hexahistidine tag (mFGFR3b.mmH, REGN3215) or human FGFR3c expressed with a C-terminal myc-myc-hexahistidine tag (hFGFR3c.mmH, REGN3155) or human FGFR3b expressed with an C-terminal murine Fc tag (hFGFR3b.mFc, REGN3153) binding to purified anti-FGFR3 antibodies were determined using a real-time surface plasmon resonance biosensor technology using a Biacore 3000 or Biacore 4000 instrument. The CM5 Biacore sensor surface was derivatized by amine coupling with a monoclonal mouse anti-human Fc monoclonal antibody (REGN2567). All Biacore binding studies were performed in a buffer composed of 0.01M HEPES pH 7.4, 0.15 M NaCl, 3 mM EDTA, 0.05% v/v Surfactant P20 (HBS-EP running buffer). Different concentrations of monomeric proteins prepared in HBS-EP running buffer (ranging from 90 nM to 3.33 nM in 3-fold serial dilutions) or dimeric protein (hFGFR3b.mFc, REGN3153) prepared in HBS-EP running buffer (ranging from 30 to 10 nM in 3-fold serial dilution) were injected over the captured anti-FGFR3 antibodies at a flow rate of 30 μL/minute. Antibody-reagent association was monitored for 5 minutes while dissociation in HBS-EP running buffer was monitored for 10 minutes. At the end of each cycle, the anti-FGFR3 antibody capture surface was regenerated using a 10 sec injection of 20 mM phosphoric acid. All binding kinetics experiments were performed at 25° C.
# The specific SPR-Biacore sensorgrams were obtained by a double referencing procedure. The double referencing was performed by first subtracting the signal of each injection over a reference surface (anti-hFc) from the signal over the experimental surface (anti-hFc-captured anti-FGFR3 antibodies) thereby removing contributions from refractive index changes. In addition, running buffer injections were performed to allow subtraction of the signal changes resulting from the dissociation of captured antibodies from the coupled anti-hFc surface. Kinetic association (ka) and dissociation (kd) rate constants were determined by fitting the real-time sensorgrams to a 1:1 binding model using Scrubber v2.0c curve fitting software. Binding dissociation equilibrium constants (KD) and dissociative half-lives (t½) were calculated from the kinetic rate constants as: […]
# [2] = system: BAF3/FGFR3b_S249C cells (human FGFR3b S249C); assay: BaF3 proliferation assay (CellTiter-Glo), FGFR3b S249C; assay type: cell-based, murine; settings: 1 nM FGF1 + 5 ug/ml heparin
# [3] = system: CD73 protein level in UMUC14 cells; assay: CD73 expression in UMUC14 cells in vitro, Western blot; assay type: cell-based; settings: 1 nM, 10 nM, 100 nM, 48 hrs, FIG. 6
# Experimental: To investigate the effect of anti-FGFR3 antibody or tyrosine kinase inhibitor (AZD4547; commercially available) on CD73 expression, UMUC14 bladder cancer cells were seeded in 6 well tissue culture plate (Corning) in complete medium (MEM medium with 10% FBS, 1% Non-Essential Amino Acids, Pen/Strep) and cultured overnight at 37° C. 5% CO2. Cells were then treated with antibodies or inhibitors at indicated concentration (100 nM, 10 nM or 1 nM) for 48 hrs. Cells were washed with pre-chilled PBS and collected in lysis buffer containing protease and phosphatase inhibitors. Equal amount of cell lysates were analyzed by SDS-PAGE. Blots were blocked in 0.5% Tween 20 in Tris buffered saline (TBS) containing 5% non-fat dry milk followed by overnight incubation with anti-CD73 primary antibody (Cell Signaling Technology). After washing 3× with TBST and incubation with secondary antibody, membranes were developed with SuperSignal West Pico or Femto substrate and luminescence images were captured with a C300 imager (Azure Biosystems).
# [4] = system: CD73 protein level in Fadu S249C tumors; assay: CD73 expression in Fadu S249C tumors in vivo, Western blot; parameters: species or system SCID mice; settings: FGFR3 mAb 15 mg/kg one intraperitoneal dose; AZD4547 25 mg/kg daily gavage; FIG. 11A-11B
# Experimental: To test the effect of anti-FGFR3 inhibitory antibody or tyrosine kinase inhibitor (AZD4547) on CD73 expression in vivo, tumor cells (5×10^6 UMUC14, 3×10^6 Fadu EV or S249C, in 50% Matrigel) were implanted subcutaneously into the right flank of 6 to 8-week-old female SCID mice (Jackson Laboratory). Once tumors were established (˜200 mm^3 in volume), mice were randomized into treatment groups (n=5-6 mice per group) and injected intraperitoneally once with anti-FGFR3 antibodies (15 mg/kg) or isotype control. Tyrosine kinase inhibitor AZD4547 (25 mg/kg) was administered once daily by oral gavage for 3 days. Tumors were collected 4 days post treatment initiation. Tumors were collected, snap frozen and lysed in RIPA buffer. Equal amount of tumor lysates were analyzed by SDS-PAGE and blotted with anti-CD73 and anti-FGFR3 antibodies as described above. Membranes were developed with SuperSignal West Pico or Femto substrate and luminescence images were captured with a C300 imager (Azure Biosystems). Intensity of each CD73 and actin band was quantitated using Image J (NIH), and the ratio of CD73/actin for each sample were graphed using Prism Graphpad.
# [5] = system: BaF3 cells expressing FGFR3 S249C/V557M; assay: BaF3 proliferation assay, FGFR3 S249C/V557M; assay type: cell-based, murine; settings: FIG. 12B
# Experimental: IL-3 dependent murine pro B cell line BaF3 cells were engineered to stably express full length human FGFR3b S249C, V557L, V557M, S249C/V557L, S249C/V557M (accession number for WT FGFR3b NP_001156685.1, amino acids M1-T808). Cells were maintained in RPMI 1640+10% FBS+P/S/G+1 ng/ml mouse IL-3+500 ug/ml Neomycin; 37° C. 5% CO2. For proliferation assays, cells were washed with IL-3-free culture media and plated at 10^5 cells/well into 96-well black wall tissue culture plates. Cells were treated with 1:3 serially diluted antibody as indicated in the presence or absence of 5 μg/ml heparin and 1 nM human FGF1. After addition of antibodies, cells were incubated at 37° C./5% CO2 for 72 h followed by the addition of an equal volume of CellTiter-Glo™ (Promega) reagent to lyse cells and detect luciferase activity. Luminescence signal was quantitated with Envision plate reader (PerkinElmer). EC50 values of the antibodies were determined using GraphPad Prism software.
# T1 sequence (Q61851 with tags, fused parts or gaps isoform Q61851-2): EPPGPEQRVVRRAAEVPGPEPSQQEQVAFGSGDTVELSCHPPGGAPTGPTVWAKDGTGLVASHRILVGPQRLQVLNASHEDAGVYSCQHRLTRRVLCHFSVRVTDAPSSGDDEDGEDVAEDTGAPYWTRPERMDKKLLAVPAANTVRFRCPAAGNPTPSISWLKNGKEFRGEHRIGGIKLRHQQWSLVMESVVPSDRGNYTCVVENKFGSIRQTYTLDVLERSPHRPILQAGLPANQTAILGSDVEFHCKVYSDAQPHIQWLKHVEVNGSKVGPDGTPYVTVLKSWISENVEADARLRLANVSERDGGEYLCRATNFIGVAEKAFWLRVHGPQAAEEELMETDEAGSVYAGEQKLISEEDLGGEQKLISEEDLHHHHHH
molecule,measurement,setting,value
B1,ka,[1],204000 M⁻¹ s⁻¹
same,kd,[1],2.78e-05 s⁻¹
same,"inhibition of ligand-enhanced proliferation, BaF3/FGFR3_S249C (in words)",[2],inhibited to similar maximum levels
same,CD73 expression in UMUC14 cells in vitro (in words),[3],dose dependent downregulation of CD73 expression
same,CD73 expression in Fadu S249C tumors in vivo (in words),[4],decreased expression of CD73 relative to mice treated with control
same,growth inhibition of BaF3 cells expressing FGFR3 S249C+V557M (in words),[5],strongly inhibit the growth

# — patent US20240158515A1, “ANTI-FGFR3 ANTIBODIES AND ANTIGEN-BINDING FRAGMENTS AND METHODS OF USE THEREOF” (Regeneron Pharmaceuticals, Inc., priority 2022, published 2024)
